Experimental data: publication PMC4336329 (PLoS ONE, 2015)
Hit rate of the full screen: of about 310,000 compounds, about 14,000 (4.5%) showed an effect of 50% or more. Effects have a minus sign here. Some of the results follow.

target: human ether-à-go-go-related gene (hERG) potassium channel (human, UniProt Q12809); experiment: primary screen, population patch clamp on CHO cells stably expressing hERG
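Further: peak tail current of the secondary pulse compared with the same well before compound.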

human ether-à-go-go-related gene (hERG) potassium channel, sequence (Q12809 whole entry, looked up): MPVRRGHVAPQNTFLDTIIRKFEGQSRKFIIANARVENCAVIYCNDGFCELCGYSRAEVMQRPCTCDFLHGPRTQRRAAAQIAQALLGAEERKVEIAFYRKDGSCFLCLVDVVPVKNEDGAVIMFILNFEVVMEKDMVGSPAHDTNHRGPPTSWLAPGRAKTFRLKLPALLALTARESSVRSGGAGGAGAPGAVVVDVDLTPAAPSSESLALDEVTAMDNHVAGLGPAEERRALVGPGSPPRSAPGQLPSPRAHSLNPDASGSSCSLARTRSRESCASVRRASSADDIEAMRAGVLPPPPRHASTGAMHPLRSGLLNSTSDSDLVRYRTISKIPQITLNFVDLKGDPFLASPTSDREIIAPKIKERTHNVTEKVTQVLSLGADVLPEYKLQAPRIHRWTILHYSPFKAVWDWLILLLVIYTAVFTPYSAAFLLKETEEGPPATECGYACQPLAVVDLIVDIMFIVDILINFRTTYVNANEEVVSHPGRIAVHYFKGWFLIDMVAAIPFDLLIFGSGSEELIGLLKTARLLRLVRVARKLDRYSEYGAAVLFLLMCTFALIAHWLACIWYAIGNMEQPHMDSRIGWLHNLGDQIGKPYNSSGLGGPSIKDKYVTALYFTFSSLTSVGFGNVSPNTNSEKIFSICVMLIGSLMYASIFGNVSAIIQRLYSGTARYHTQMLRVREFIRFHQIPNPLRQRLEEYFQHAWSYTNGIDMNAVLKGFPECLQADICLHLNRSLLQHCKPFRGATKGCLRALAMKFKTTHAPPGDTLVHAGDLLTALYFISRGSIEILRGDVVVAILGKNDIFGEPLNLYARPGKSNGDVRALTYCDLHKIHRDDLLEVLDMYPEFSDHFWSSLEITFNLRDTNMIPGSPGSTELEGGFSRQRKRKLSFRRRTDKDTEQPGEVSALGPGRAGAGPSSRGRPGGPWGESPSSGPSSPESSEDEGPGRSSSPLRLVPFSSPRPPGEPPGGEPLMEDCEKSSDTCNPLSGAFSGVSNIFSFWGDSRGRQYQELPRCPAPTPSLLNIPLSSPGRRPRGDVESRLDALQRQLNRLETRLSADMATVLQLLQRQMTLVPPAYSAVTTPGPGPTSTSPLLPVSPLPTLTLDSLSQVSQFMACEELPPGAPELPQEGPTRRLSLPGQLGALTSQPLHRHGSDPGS

Row | SMILES | hERG current change (%, negative = inhibition) at 10uM [%]
1 | CCCS(=O)(=O)N1CCN(Cc2ccccc2OCC)CC1 | -10.8
2 | Cc1cc(C(=O)OCC(=O)Nc2ccc(F)c(F)c2F)c(C)o1 | 19.9
3 | O=C(NCCCNc1ccc([N+](=O)[O-])cc1)C(F)(F)F | -8.32
4 | O=C(COc1ccc(F)cc1)N1CCC(Cc2ccccc2)CC1 | -19.5
5 | CN(CC(=O)Nc1ccc(F)cc1)C(=O)COC(=O)c1cc([N+](=O)[O-])ccc1N1CCOCC1 | -64.3
6 | O=C(CSc1nc2c([nH]c3ccccc32)c(=O)n1-c1ccccc1)NCC1CCCO1 (stereo not drawn) | 3.52
7 | C/C=C(/C)C(=O)OC(C)(C)[C@@H]1Cc2c(ccc3ccc(=O)oc23)O1 | -0.947
8 | COc1cccc(CNC(=O)c2n[nH]c3ccccc23)c1 | 14
9 | C/C(=N\NC(=O)CNc1cccc(Cl)c1C)c1cccs1 | 10.4
10 | CC1CCCCC1NC(=O)CN1CCN(S(=O)(=O)c2ccc(Br)s2)CC1 (stereo not drawn) | 14.3
11 | CS(=O)(=O)N1CCc2cc(-c3csc(NCC4CCCO4)n3)ccc21 (stereo not drawn) | -7.28
12 | Cc1cc(C)c(SCCc2ccncc2)c(C)c1 | 0.142
13 | CC(=O)c1cccc(NC(=O)CSc2nnc(C(C)N(C)C)n2Cc2ccccc2)c1 (stereo not drawn) | -20.1
14 | Cc1nc([N+](=O)[O-])cn1CC(=O)c1ccccc1 | 8.41
15 | Cc1ccc(NC(=O)Nc2ccc(F)cc2)cc1Cl | 16.3
16 | CC(=O)c1cccc(N(CC(=O)NC2CCCCC2)C(=O)Cn2nnc(-c3ccccc3)n2)c1 | -2.86
17 | COc1cccc(NC(=O)Nc2nc(-c3ccc(OC)c(OC)c3)cs2)c1 | -0.837
18 | COc1ccccc1NC(=S)NNC(=O)c1ccc(Cl)cc1Cl | 12.4
19 | Cc1c(NC(=O)C(C)Oc2ccc(Br)cc2Cl)c(=O)n(-c2ccccc2)n1C (stereo not drawn) | -49.7
20 | CCCC(C)C(=O)OCC(=O)Nc1ccc(Br)cc1 (stereo not drawn) | 13.3
21 | CC(/C=N/NC(=O)c1cccc([N+](=O)[O-])c1)=C\c1ccccc1 | -6.67
22 | COc1cc(C(Nc2ccccn2)c2c(NC(=O)c3ccco3)sc(C)c2C)cc(OC)c1OC (stereo not drawn) | -3.1
23 | CCOC(=O)Cc1csc(NC(=O)c2ccc(Br)s2)n1 | -11.5

Row | SMILES | hERG current change (%, negative = inhibition) at 10uM [%]
24 | CC(C)(C)c1ccc(C(=O)NCC(=O)N/N=C/c2ccccc2OCC(=O)O)cc1 | 6.91
25 | CC(C)c1nc(C(=O)N2CCCC(CCC(=O)N(C)CCc3ccccn3)C2)cs1 (stereo not drawn) | 8.87
26 | Cc1ccc(CSc2nc3c(c(N(C)C)n2)CCCC3)cc1 | -5.63
27 | Fc1ccc(N2CCN(c3ccc4c(C(F)(F)F)cc(C(F)(F)F)nc4n3)CC2)cc1 | -18.5
28 | Cc1cccc(NC(=O)CSc2nnc(-c3cc(C)[nH]n3)n2N)c1 | -29.1
29 | COc1ccccc1C(=O)NCCC(=O)Nc1ccncc1 | 4.24
30 | Cc1ccc(C(=O)N2CC(C)CC(C)C2)cc1S(=O)(=O)N1CCCCC1 (stereo not drawn) | -30.2
31 | O=c1c(-c2ccccc2)n[nH]c2ccccc12 | -1.62
32 | COc1ccc(NC(=S)N(CCN2CCOCC2)C2CCN(C(C)=O)CC2)cc1Cl | 3.21
33 | Cc1ccc(-c2nnc(N3CCOCC3)c3ccccc23)cc1S(N)(=O)=O | 17.3
34 | O=C(NCc1cccnc1)c1ccccc1[N+](=O)[O-] | 12.6
35 | Fc1ccccc1/C=N/Nc1nn[nH]n1 | 13
36 | O=C(CSc1cccc2cccnc12)OCC(=O)c1ccccc1 | 8.7
37 | CC1=CC2=NC(=O)/C(=C/c3cccs3)C(=N)N2O1 | 19.7
38 | COc1ccc(NC(=O)c2cccs2)cn1 | 11.1
39 | N#C/C(=C\c1ccc(O)cc1)c1nc2ccccc2o1 | 1.18
40 | CC1=NN(c2ccccc2)C(=O)/C1=C\C=C\c1ccccc1 | 4.84
41 | Cc1nn(-c2ccccc2)c(Cl)c1C(=O)NCC(C)C | -5.02
42 | COc1ccccc1CCN=C(N)NS(=O)(=O)c1cccs1 | 12.5
43 | CCOc1cc2c3c(c1)C(C)=CC(C)(C)N3C(=O)C2=O | 21.7
44 | CCCCC(=O)N(c1ccc(OCC)cc1)C1C=CS(=O)(=O)C1 (stereo not drawn) | 6.86
45 | CCN(CC)S(=O)(=O)c1ccc(Cl)c(NC2=NCCCCC2)c1 | -1.64
46 | Cc1nc2ccccc2n1C(=O)c1ccc(Cl)cc1[N+](=O)[O-] | -4.4

Row | SMILES | hERG current change (%, negative = inhibition) at 10uM [%]
47 | COCCOC(=O)c1c(N)n(Cc2ccc(OC)cc2)c2nc3ccccc3nc12 | -75.4
48 | CCOc1ccc(NC(=O)Nc2cccnc2)cc1 | -23.3
49 | Cc1cc(C(=O)Nc2nnc(C3CCCCC3)s2)cs1 | -5.46
50 | COc1ccc(N2C3=[N+](CC2(C)O)c2ccccc2CC3)cc1.[Br-] (stereo not drawn) | -44.3
51 | CC1(C)CCCN(C(=O)N2c3ccccc3Sc3ccccc32)C1 | 9.06
52 | Nc1cc(S(=O)(=O)Nc2ccc(Cl)cc2)ccc1N1CCOCC1 | 5.33
53 | CCC(=O)c1ccccc1OCCCCn1cncn1.O=C(O)C(=O)O | 4.82
54 | CCn1cc(C2=NOC(C(=O)Nc3ccc4c(c3)OCO4)C2)c(C)n1 (stereo not drawn) | 10.5
55 | NNC(=O)CSCc1nc(-c2ccccc2)cs1 | 6.08
56 | Cc1oc(-c2cc(F)cc(F)c2)nc1CN1CCN(C(=O)c2ccco2)CC1 | -40.5
57 | C/C(CC(=O)NC1CCCCC1)=N\NC(=O)COc1ccc(C)cc1Br | -22.8
58 | COc1ccc(CNC(=O)c2cccnc2Sc2ccc(C)c(C)c2)cc1 | 3.63
59 | Cc1cc(C(=O)CS(=O)(=O)c2ccc(F)cc2)cc(C)c1O | 4.3
60 | CC(C)OCC(O)Cn1c(N2CCCC2)nc2c1c(=O)n(C)c(=O)n2C (stereo not drawn) | 13.6
61 | COc1ccc(CC(=O)N(Cc2cc3cc(OC)ccc3[nH]c2=O)C(C)C)cc1 | -39
62 | COC(=O)CC(N)c1ccc(OC)c2ccccc12.Cl (stereo not drawn) | -18.8
63 | NC(=S)N/N=C/c1ccc(-c2cc(Cl)c(Cl)cc2Cl)o1 | 15.5
64 | O=C(NCCCN1CCOCC1)c1onc(CSc2ccccn2)c1C(=O)NCCCN1CCOCC1 | 8.13
65 | COC(=O)C1=NN(c2cccc3ccccc23)C2C(=O)N(c3ccccc3OC)C(=O)C12 (stereo not drawn) | 4.78
66 | N#Cc1ccc(NC(=O)CSc2cn[nH]n2)cc1 | 24.4
67 | CC(CC(=O)NCc1cccnc1)c1ccccc1 (stereo not drawn) | 10.6
68 | O=C(CCSc1nc(-c2ccco2)cc(C(F)(F)F)n1)NCc1cccs1 | -12.2
69 | Oc1c(Cl)cc(Cl)cc1/C=N/Nc1ncc(Br)cn1 | -0.796

Row | SMILES | hERG current change (%, negative = inhibition) at 10uM [%]
70 | CC(OC(=O)c1cccs1)C(=O)NC1CC1 (stereo not drawn) | -5.98
71 | Cn1c(=O)oc2cc(S(=O)(=O)Nc3ccc(Cl)cc3)ccc21 | 14.7
72 | CCOc1cccc(C(=O)NC(=S)Nc2cccc(NC(=O)c3ccccc3Cl)c2)c1 | 16.5
73 | Cc1nc2ccccc2c(=O)n1-c1ccc(F)c(NC(=O)c2cccs2)c1 | -22.6
74 | COC(=O)c1cc(OC)c(OC)cc1NC(=O)CC1CCCCC1 | -0.091
75 | CCCC(NC(=O)CCl)c1ccccc1 (stereo not drawn) | 4.67
76 | CS(=O)(=O)N1CCN(C(=O)c2cc3ccccc3oc2=O)CC1 | -0.0734
77 | COc1ccc(S(=O)(=O)N2CCC(C(=O)N3CCCCC3)CC2)cc1 | 2.83
78 | CN(CC(=O)Nc1ccc(F)cc1)C(=O)COC(=O)/C=C/c1cccs1 | 11.3
79 | CC(C)(CC(=O)OCC(=O)Nc1ccccc1F)CC1=NS(=O)(=O)c2ccccc2N1 | 0.85
80 | CC(C)N1C(=O)c2ccccc2N(Cc2ccccc2)S1(=O)=O | -0.116
81 | COc1cc(OC)cc(C(=O)N[C@H](C(=O)OCC(=O)Nc2ccc(C(N)=O)cc2)C(C)C)c1 | -40.5
82 | CCc1ccc(OCC(=O)NC(NC(=S)Nc2ccc(Cl)cc2)C(Cl)(Cl)Cl)cc1 (stereo not drawn) | 6.97
83 | Nc1nc(NCC2CCCO2)nc(Nc2cccc(Cl)c2)c1[N+](=O)[O-] (stereo not drawn) | -1.02
84 | COc1ccc(CNC(=O)C(C)Sc2nc3ccccc3c(=O)n2CCCN2CCOCC2)cc1 (stereo not drawn) | -84.9
85 | COCCOc1cc(NC(=O)CS(=O)CC(=O)N(C)C)c(Cl)cc1Cl (stereo not drawn) | 13.2
86 | COc1ccc2[nH]c(C(=O)NCCCN3CCCC3=O)c(C)c2c1 | 0.0274
87 | Cc1ccc(-n2nnnc2SCC(=O)c2c(N)n(C3CC3)c(=O)[nH]c2=O)c(C)c1 | -4.23
88 | Cc1nnc2n(-c3ccccc3)c(=O)c3c4c(sc3n12)CCCC4 | -13.7
89 | CC(NC(=O)Cn1cc([N+](=O)[O-])cn1)c1ccc(C(C)(C)C)cc1 (stereo not drawn) | 1.71
90 | COCCn1c(SCC(=O)NC2CC2)nc2ccccc21 | 8.72
